In the supplement of paper PMC4967469 one finds AUC and IC50 data, which are given here for 66 cell lines.

IC50 is the fitted dose that halves viability relative to control wells, and lower means more sensitive; a fit beyond the top or the lowest dose is shown as a bound at that dose. AUC is the area under the same curve over the 256-fold range up to the top dose, as a fraction; values near 1 show little effect. The top dose, if marked as inferred, is not printed in the source and was worked back from the curve model.

Compound in this test: CCOc1cc2ncc(C#N)c(Nc3ccc(F)c(Cl)c3)c2cc1NC(=O)/C=C/CN(C)C [EKB-569]
In words: Viability of human cancer cell lines after 72 h of drug (GDSC screen). As to conditions: top dose inferred. On the procedure: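 Human cancer cell lines in 384-well plates, medium with 10% serum, drug for 72 h over a 256-fold dose range (nine 2-fold or five 4-fold steps up to the top dose). Adherent lines were fixed and stained with the nucleic acid dye Syto60, suspension lines read with resazurin; signal relative to control wells, capped at 0 and 100%. One two-parameter sigmoid per drug and line, fitted in a mixed model over all curves with the slope shared within a line.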
A word on the IC50: it is the concentration at which inhibition is half-maximal. On to “HCC1419 (breast, adherent, top dose 2.5 µM)”, for which the AUC was 0.658 and the IC50 amounted to 516 nM.
The like results for “JHH-6 (liver, adherent, top dose 2.5 µM)” were, in that order, 0.983 and over 2500 nM.
On to “COR-L88 (small cell lung carcinoma, adherent, top dose 2.5 µM)”, for which the AUC was 0.976 and the IC50 was over 2500 nM.
Regarding “JSC-1 (B-cell lymphoma, suspension, top dose 2.5 µM)”, the AUC was found to be 0.771 and the IC50 was 947 nM.
Take “EFM-19 (breast, adherent, top dose 2.5 µM)”: the AUC turned out to be 0.972 and the concentration for half-maximal inhibition (IC50) was over 2500 nM.
Turning to “HCC1806 (breast, adherent, top dose 2.5 µM)”, the AUC is 0.829 and the IC50 came to 1380 nM.
As for “RCC-AB (kidney, adherent, top dose 2.5 µM)”, the AUC worked out at 0.59 and the IC50 is 297 nM.
The like results for “RERF-LC-Sq1 (lung squamous cell carcinoma, adherent, top dose 2.5 µM)” were, in that order, 0.92 and over 2500 nM.
In the same order, the values of “Mewo (melanoma, adherent, top dose 2.5 µM)” are 0.968 and over 2500 nM.
In the same order, the values of “OVCAR-3 (ovary, adherent, top dose 2.5 µM)” are 0.985 and over 2500 nM.
Take “H3118 (head and neck, adherent, top dose 2.5 µM)”: the AUC turned out to be 0.356 and the IC50 stood at 60.1 nM.
For the cell line “FADU (head and neck, adherent, top dose 2.5 µM)”, the AUC turned out to be 0.892 and the IC50 was over 2500 nM.
In the same order, the values of “LB1047-RCC (kidney, adherent, top dose 2.5 µM)” are 0.772 and 1090 nM.
The like results for “C32 (melanoma, adherent, top dose 2.5 µM)” were, in that order, 0.986 and over 2500 nM.
The like results for “FTC-133 (thyroid, adherent, top dose 2.5 µM)” were, in that order, 0.986 and over 2500 nM.
Turning to “SF126 (glioma, adherent, top dose 2.5 µM)”, the AUC stood at 0.963 and the IC50 was over 2500 nM.
The like results for “NCI-H2081 (small cell lung carcinoma, suspension, top dose 2.5 µM)” were, in that order, 0.977 and over 2500 nM.
Take “HUTU-80 (digestive system, adherent, top dose 2.5 µM)”: the AUC stood at 0.747 and the 50% inhibitory concentration (IC50) was 685 nM.
The like results for “BICR10 (head and neck, adherent, top dose 2.5 µM)” were, in that order, 0.958 and over 2500 nM.
The like results for “GAMG (glioma, adherent, top dose 2.5 µM)” were, in that order, 0.899 and over 2500 nM.
With “NCI-H716 (large intestine, suspension, top dose 20 µM)”, the AUC was 0.781 and the concentration for half-maximal inhibition (IC50) worked out at 10600 nM.
Take “H9 (lymphoid neoplasm, suspension, top dose 2.5 µM)”: the AUC was 0.943 and the IC50 is over 2500 nM.
In the same order, the values of “SBC-1 (small cell lung carcinoma, suspension, top dose 2.5 µM)” are 0.989 and over 2500 nM.
“RCC-JF (kidney, adherent, top dose 2.5 µM)”: the AUC came out at 0.518 and the IC50 turned out to be 175 nM.
Regarding “CAPAN-1 (pancreas, adherent, top dose 2.5 µM)”, the AUC turned out to be 0.816 and the half-maximal inhibitory concentration (IC50) was found to be 1580 nM.
The like results for “HCC-78 (lung adenocarcinoma, adherent, top dose 2.5 µM)” were, in that order, 0.865 and over 2500 nM.
In the case of “ES8 (Ewing sarcoma, adherent, top dose 2.5 µM)”, the AUC is 0.912 and the IC50 is over 2500 nM.
The like results for “SBC-5 (small cell lung carcinoma, adherent, top dose 2.5 µM)” were, in that order, 0.992 and over 2500 nM.
In the same order, the values of “Ramos-2G6-4C10 (Burkitt lymphoma, suspension, top dose 2.5 µM)” are 0.929 and over 2500 nM.
For the cell line “NCI-H1944 (lung adenocarcinoma, adherent, top dose 2.5 µM)”, the AUC is 0.823 and the IC50 was 1600 nM.
The like results for “JVM-2 (lymphoid neoplasm, suspension, top dose 2.5 µM)” were, in that order, 0.944 and over 2500 nM.
For “RPMI-6666 (Hodgkin lymphoma, suspension, top dose 2.5 µM)”, the AUC amounted to 0.693 and the IC50 came to 611 nM.
The like results for “GCIY (stomach, adherent, top dose 2.5 µM)” were, in that order, 0.792 and 1300 nM.
The like results for “HSC-4 (head and neck, adherent, top dose 2.5 µM)” were, in that order, 0.878 and over 2500 nM.
In the case of “IHH-4 (thyroid, semi-adherent, top dose 2.5 µM)”, the AUC was determined as 0.97 and the IC50 was over 2500 nM.
For “SU-DHL-6 (B-cell lymphoma, suspension, top dose 2.5 µM)”, the AUC stood at 0.572 and the IC50 came to 233 nM.
On to “PSN1 (pancreas, adherent, top dose 2.5 µM)”, for which the AUC came to 0.919 and the IC50 was over 2500 nM.
The like results for “EGI-1 (biliary tract, adherent, top dose 2.5 µM)” were, in that order, 0.9 and over 2500 nM.
In the same order, the values of “Calu-3 (lung adenocarcinoma, adherent, top dose 2.5 µM)” are 0.684 and 587 nM.
“CAL-27 (head and neck, adherent, top dose 2.5 µM)”: the AUC was 0.619 and the IC50 is 334 nM.
As to “H2803 (mesothelioma, adherent, top dose 2.5 µM)”, the AUC worked out at 0.974 and the concentration for half-maximal inhibition (IC50) was over 2500 nM.
The like results for “SUP-HD1 (Hodgkin lymphoma, suspension, top dose 2.5 µM)” were, in that order, 0.847 and 1710 nM.
Regarding “A673 (rhabdomyosarcoma, adherent, top dose 2.5 µM)”, the AUC amounted to 0.98 and the IC50 is over 2500 nM.
In the same order, the values of “TOV-112D (ovary, adherent, top dose 2.5 µM)” are 0.791 and 1130 nM.
In the same order, the values of “PANC-10-05 (pancreas, adherent, top dose 2.5 µM)” are 0.808 and 1770 nM.
Turning to “SK-MEL-1 (melanoma, suspension, top dose 2.5 µM)”, the AUC worked out at 0.981 and the IC50 was over 2500 nM.
Consider “RERF-LC-KJ (lung adenocarcinoma, adherent, top dose 2.5 µM)”, for which the AUC was 0.954 and the IC50 is over 2500 nM.
The like results for “RVH-421 (melanoma, adherent, top dose 2.5 µM)” were, in that order, 0.906 and over 2500 nM.
The like results for “NCI-H446 (small cell lung carcinoma, semi-adherent, top dose 2.5 µM)” were, in that order, 0.907 and over 2500 nM.
In the same order, the values of “L-1236 (Hodgkin lymphoma, suspension, top dose 2.5 µM)” are 0.965 and over 2500 nM.
Turning to “CHP-126 (neuroblastoma, suspension, top dose 2.5 µM)”, the AUC came out at 0.965 and the IC50 was over 2500 nM.
In the same order, the values of “T98G (glioma, adherent, top dose 2.5 µM)” are 0.969 and over 2500 nM.
As to “ASH-3 (thyroid, adherent, top dose 2.5 µM)”, the AUC was 0.983 and the IC50 was over 2500 nM.
As to “ALL-PO (lymphoblastic leukaemia, suspension, top dose 2.5 µM)”, the AUC came out at 0.457 and the IC50 was found to be 119 nM.
As to “NCI-H2135 (non-small cell lung carcinoma, adherent, top dose 2.5 µM)”, the AUC amounted to 0.94 and the IC50 is over 2500 nM.
With “TYK-nu (ovary, adherent, top dose 2.5 µM)”, the AUC stood at 0.985 and the IC50 was over 2500 nM.
In the same order, the values of “201T (lung adenocarcinoma, adherent, top dose 2.5 µM)” are 0.966 and over 2500 nM.
As for “CAL-12T (non-small cell lung carcinoma, adherent, top dose 2.5 µM)”, the AUC is 0.577 and the IC50 came to 261 nM.
In the same order, the values of “Farage (B-cell lymphoma, suspension, top dose 2.5 µM)” are 0.763 and 750 nM.
For the cell line “RKO (large intestine, adherent, top dose 20 µM)”, the AUC is 0.587 and the 50% inhibitory concentration (IC50) amounted to 2120 nM.
The like results for “CL-11 (large intestine, adherent, top dose 2.5 µM)” were, in that order, 0.987 and over 2500 nM.
The like results for “COLO-829 (melanoma, adherent, top dose 2.5 µM)” were, in that order, 0.96 and over 2500 nM.
For the cell line “H2818 (mesothelioma, adherent, top dose 2.5 µM)”, the AUC worked out at 0.986 and the half-inhibitory concentration (IC50) was over 2500 nM.
In the same order, the values of “EC-GI-10 (oesophagus, adherent, top dose 2.5 µM)” are 0.987 and over 2500 nM.
In the same order, the values of “HuH-7 (liver, adherent, top dose 2.5 µM)” are 0.987 and over 2500 nM.
With “UACC-893 (breast, adherent, top dose 2.5 µM)”, the AUC was 0.509 and the IC50 worked out at 166 nM.
